{"source": "paper PMC6794377", "binders": {"B1": {"name": "C-terminal FLAG-tagged human threonyl-tRNA synthetase-like protein (hThrRS-L-FLAG) (enzyme, UniProt A2RTX5 1-802)", "chain": "MAAEALAAEAVASRLERQEEDIRWLWSEVERLRDEQLNAPYSCQAEGPCLTREVAQLRAENCDLRHRLCSLRLCLAEERSRQATLESAELEAAQEAGAQPPPSQSQDKDMKKKKMKESEADSEVKHQPIFIKERLKLFEILKKDHQLLLAIYGKKGDTSNIITVRVADGQTVQGEVWKTTPYQVAAEISQELAESTVIAKVNGELWDLDRPLEGDSSLELLTFDNEEAQAVYWHSSAHILGEAMELYYGGHLCYGPPIENGFYYDMFIEDRAVSSTELSALENICKAIIKEKQPFERLEVSKEILLEMFKYNKFKCRILNEKVNTATTTVYRCGPLIDLCKGPHVRHTGKIKTIKIFKNSSTYWEGNPEMETLQRIYGISFPDNKMMRDWEKFQEEAKNRDHRKIGKEQELFFFHDLSPGSCFFLPRGAFIYNTLTDFIREEYHKRDFTEVLSPNMYNSKLWEASGHWQHYSENMFTFEIEKDTFALKPMNCPGHCLMFAHRPRSWREMPIRFADFGVLHRNELSGTLSGLTRVRRFQQDDAHIFCTVEQIEEEIKGCLQFLQSVYSTFGFSFQLNLSTRPENFLGEIEMWNEAEKQLQNSLMDFGEPWKMNPGDGAFYGPKIDIKIKDAIGRYHQCATIQLDFQLPIRFNLTYVSKDGDDKKRPVIIHRAILGSVERMIAILSENYGGKWPFWLSPRQVMVIPVGPTCEKYALQVSSEFFEEGFMADVDLDHSCTLNKKIRNAQLAQYNFILVVGEKEKIDNAVNVRTRDNKIHGEILVTSAIDKLKNLRKTRTLNAEEAF"}, "B2": {"name": "GlnRS, endogenous in HEK293T (enzyme, UniProt P47897 1-775)", "chain": "MAALDSLSLFTSLGLSEQKARETLKNSALSAQLREAATQAQQTLGSTIDKATGILLYGLASRLRDTRRLSFLVSYIASKKIHTEPQLSAALEYVRSHPLDPIDTVDFERECGVGVIVTPEQIEEAVEAAINRHRPQLLVERYHFNMGLLMGEARAVLKWADGKMIKNEVDMQVLHLLGPKLEADLEKKFKVAKARLEETDRRTAKDVVENGETADQTLSLMEQLRGEALKFHKPGENYKTPGYVVTPHTMNLLKQHLEITGGQVRTRFPPEPNGILHIGHAKAINFNFGYAKANNGICFLRFDDTNPEKEEAKFFTAICDMVAWLGYTPYKVTYASDYFDQLYAWAVELIRRGLAYVCHQRGEELKGHNTLPSPWRDRPMEESLLLFEAMRKGKFSEGEATLRMKLVMEDGKMDPVAYRVKYTPHHRTGDKWCIYPTYDYTHCLCDSIEHITHSLCTKEFQARRSSYFWLCNALDVYCPVQWEYGRLNLHYAVVSKRKILQLVATGAVRDWDDPRLFTLTALRRRGFPPEAINNFCARVGVTVAQTTMEPHLLEACVRDVLNDTAPRAMAVLESLRVIITNFPAAKSLDIQVPNFPADETKGFHQVPFAPIVFIERTDFKEEPEPGFKRLAWGQPVGLRHTGYVIELQHVVKGPSGCVESLEVTCRRADAGEKPKAFIHWVSQPLMCEVRLYERLFQHKNPEDPTEVPGGFLSDLNLASLHVVDAALVDCSVALAKPFDKFQFERLGYFSVDPDSHQGKLVFNRTVTLKEDPGKV"}, "B3": {"name": "p43 overexpressed in E. coli (protein, UniProt Q12904-2 1-336)", "chain": "MLPAVAVSEPVVLRFMIFCRLLAKMANNDAVLKRLEQKGAEADQIIEYLKQQVSLLKEKAILQATLREEKKLRVENAKLKKEIEELKQELIQAEIQNGVKQIPFPSGTPLHANSMVSENVIQSTAVTTVSSGTKEQIKGGTGDEKKAKEKIEKKGEKKEKKQQSIAGSADSKPIDVSRLDLRIGCIITARKHPDADSLYVEEVDVGEIAPRTVVSGLVNHVPLEQMQNRMVILLCNLKPAKMRGVLSQAMVMCASSPEKIEILAPPNGSVPGDRITFDAFPGEPDKELNPKKKIWEQIQPDLHTNDECVATYKGVPFEVKGKGVCRAQTMSNSGIK"}, "B4": {"name": "p43(1-78), Gal4 activation domain fusion (domain or fragment, UniProt Q12904-2 1-78)", "chain": "MLPAVAVSEPVVLRFMIFCRLLAKMANNDAVLKRLEQKGAEADQIIEYLKQQVSLLKEKAILQATLREEKKLRVENAK"}, "B5": {"name": "TLN161 fused with a C-terminal EGFP (TLN161-EGFP) (domain or fragment, UniProt A2RTX5 1-161)", "chain": "MAAEALAAEAVASRLERQEEDIRWLWSEVERLRDEQLNAPYSCQAEGPCLTREVAQLRAENCDLRHRLCSLRLCLAEERSRQATLESAELEAAQEAGAQPPPSQSQDKDMKKKKMKESEADSEVKHQPIFIKERLKLFEILKKDHQLLLAIYGKKGDTSNI"}, "B6": {"name": "p43(79-336), Gal4 activation domain fusion (domain or fragment, UniProt Q12904-2 79-336)", "chain": "LKKEIEELKQELIQAEIQNGVKQIPFPSGTPLHANSMVSENVIQSTAVTTVSSGTKEQIKGGTGDEKKAKEKIEKKGEKKEKKQQSIAGSADSKPIDVSRLDLRIGCIITARKHPDADSLYVEEVDVGEIAPRTVVSGLVNHVPLEQMQNRMVILLCNLKPAKMRGVLSQAMVMCASSPEKIEILAPPNGSVPGDRITFDAFPGEPDKELNPKKKIWEQIQPDLHTNDECVATYKGVPFEVKGKGVCRAQTMSNSGIK"}, "B7": {"name": "hThrRS-L-Ha/A-FLAG (enzyme, UniProt A2RTX5 1-802)", "chain": "B1 chain with L15A, I22A, L25A, V29A, L32A"}, "B8": {"name": "hThrRS-L-Hb/A-FLAG (enzyme, UniProt A2RTX5 1-802)", "chain": "B1 chain with L57A, L64A, L68A, L71A, L75A"}}, "key": {"[1]": {"target": "T1, C-terminal FLAG-tagged human threonyl-tRNA synthetase-like protein (hThrRS-L-FLAG) (human) (UniProt A2RTX5)", "T1 sequence": "B1 chain", "test": "co-IP; both proteins overexpressed with different tags in HEK293T; lysis buffer 50 mM Tris-HCl pH 7.5, 150 mM NaCl, 5 mM EDTA, 1% Triton X-100; antibody overnight, Dynabeads protein G, 4°C; western blotting"}, "[2]": {"target": "T2, native p43 (AIMP1), endogenous in human cells (human (endogenous in HEK293T and HeLa)) (UniProt Q12904)", "T2 sequence": "B3 chain", "test": "co-IP; transfected HEK293T lysate, IP with anti-p43 antibodies; western blotting"}, "[3]": {"target": "T1, C-terminal FLAG-tagged human threonyl-tRNA synthetase-like protein (hThrRS-L-FLAG) (human)", "test": "co-IP; FLAG-tagged hThrRS-L or mutant overexpressed in HEK293T; IP with anti-FLAG, Dynabeads protein G, 4°C; endogenous partners detected by western blotting"}, "[4]": {"target": "T3, hThrRS-L-Δ161-FLAG, hThrRS-L with TLN161 deleted, C-terminal FLAG tag (human) (UniProt A2RTX5)", "T3 sequence": "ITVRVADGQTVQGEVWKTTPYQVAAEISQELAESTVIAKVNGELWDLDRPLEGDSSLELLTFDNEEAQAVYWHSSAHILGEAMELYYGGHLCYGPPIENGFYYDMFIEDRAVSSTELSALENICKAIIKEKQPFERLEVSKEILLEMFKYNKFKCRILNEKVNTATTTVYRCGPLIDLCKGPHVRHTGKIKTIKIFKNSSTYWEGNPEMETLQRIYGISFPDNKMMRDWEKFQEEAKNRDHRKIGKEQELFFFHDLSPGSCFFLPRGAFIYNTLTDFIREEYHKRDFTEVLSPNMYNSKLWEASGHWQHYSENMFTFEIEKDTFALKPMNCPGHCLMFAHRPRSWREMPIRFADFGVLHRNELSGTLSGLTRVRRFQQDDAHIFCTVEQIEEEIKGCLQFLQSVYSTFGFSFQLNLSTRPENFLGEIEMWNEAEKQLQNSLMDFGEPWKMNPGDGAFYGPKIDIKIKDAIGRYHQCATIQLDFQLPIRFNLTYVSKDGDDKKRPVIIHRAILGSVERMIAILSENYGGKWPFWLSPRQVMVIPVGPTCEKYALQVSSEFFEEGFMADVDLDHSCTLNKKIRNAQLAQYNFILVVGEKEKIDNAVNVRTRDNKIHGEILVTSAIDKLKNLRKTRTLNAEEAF", "test": "co-IP; FLAG-tagged hThrRS-L or mutant overexpressed in HEK293T; IP with anti-FLAG, Dynabeads protein G, 4°C; endogenous partners detected by western blotting"}, "[5]": {"target": "T4, hThrRS-L-His6 expressed in E. coli (human) (UniProt A2RTX5)", "T4 sequence": "B1 chain", "test": "pull-down; hThrRS-L-His6 co-expressed with the partner from pRSFDuet1 in E. coli; Ni-NTA affinity chromatography; western blotting"}, "[6]": {"target": "T5, TLN161, N-terminal appended domain of hThrRS-L (Met1-Ile161), Gal4 DNA binding domain fusion (human) (UniProt A2RTX5)", "T5 sequence": "B5 chain", "test": "two-hybrid; pairwise: pGADT7 construct and pGBKT7 construct together in Y2HGold; growth on QDO/X/A (SD/QDO/X) plates"}}, "note": "Numbering of substitutions follows the chain as printed. No constants are given. Whether binding was seen depends on the method and setting. For some of these results: Binding seen in cells or lysates may run through a third protein. Some entries that bind do so weakly or less than the wild type. Tags and fused reporters may be left off the sequences shown."}
{"binder": "B1", "values": [{"measurement": "binding", "setting": "[1]", "result": "binds"}, {"measurement": "binding", "setting": "[2]", "result": "binds"}]}
{"binder": "B2", "values": [{"measurement": "binding", "setting": "[3]", "result": "binds"}, {"measurement": "binding", "setting": "[4]", "result": "no binding"}]}
{"binder": "B3", "values": [{"measurement": "binding", "setting": "[5]", "result": "binds"}]}
{"binder": "B4", "values": [{"measurement": "binding", "setting": "[6]", "result": "binds"}]}
{"binder": "B5", "values": [{"measurement": "binding", "setting": "[2]", "result": "binds"}]}
{"binder": "B6", "values": [{"measurement": "binding", "setting": "[6]", "result": "no binding"}]}
{"binder": "B7", "values": [{"measurement": "binding", "setting": "[2]", "result": "no binding"}]}
{"binder": "B8", "values": [{"measurement": "binding", "setting": "[2]", "result": "no binding"}]}
